Assay results taken from patent publication US10870625B2, “Zwitterionic propargyl-linked antifolates useful for treating bacterial infections” (THE UNIVERSITY OF CONNECTICUT, priority 2016, dated 2020).

How the values were obtained:
Sa(H30N, F98Y) strain [1] = test system: Sa(H30N, F98Y) strain
Sa(F98Y) strain [2] = test system: Sa(F98Y) strain
Sa(H149R) strain [3] = test system: Sa(H149R) strain
Sa(F98Y, H149R) strain [4] = test system: Sa(F98Y, H149R) strain
Sa43300(F98Y) = assay type: cell-based, Staphylococcus aureus; details: progenitor Sa(F98Y), 6× MIC
Sa(F98Y, H149R) strain [5] = test: microbe, parasite or virus in culture; details: Staphylococcus aureus, read-out: MIC Sa(F98Y, H149R)
Sa(F98Y) strain [6] = test: microbe, parasite or virus in culture; details: Staphylococcus aureus, read-out: MIC Sa(F98Y)
Sa(H30N, F98Y) strain [7] = test: microbe, parasite or virus in culture; details: Staphylococcus aureus, read-out: MIC Sa(H30N, F98Y)
Sa43300(H149R) = assay type: cell-based, Staphylococcus aureus; details: progenitor Sa(H149R), 6× MIC
Sa(H149R) strain [8] = test: microbe, parasite or virus in culture; details: Staphylococcus aureus, read-out: MIC Sa(H149R)

**Q.** With `CCc1nc(N)nc(N)c1C#CC(SC)c1cc(-c2ccc(C(=O)O)cc2)ccc1OC` (stereo not drawn) [Compound 29] as the compound, how does the “MIC Sa(H30N, F98Y)” value (Sa(H30N, F98Y) strain [1]) read?
**A.** The value was >40 µg/mL.

**Q.** What about the “MIC Sa(F98Y)” value (Sa(F98Y) strain [2]) of the same compound?
**A.** The value was 0.1563 µg/mL (≈ 0.348 µM).

**Q.** And the “MIC Sa(H149R)” value (Sa(H149R) strain [3])?
**A.** Its value is 0.0781 µg/mL (≈ 0.174 µM).

**Q.** And the “MIC Sa(F98Y, H149R)” value (Sa(F98Y, H149R) strain [4])?
**A.** The value was >40 µg/mL.

**Q.** How did the “MIC Sa(H30N, F98Y)” value (Sa(H30N, F98Y) strain [1]) turn out when `CCc1nc(N)nc(N)c1C#CC(C)c1cc(-c2ccncc2)ccc1OC` (racemic) [C, reference compound] was run?
**A.** Its value is 20 µg/mL (≈ 53.6 µM).

**Q.** And the “MIC Sa(F98Y)” value (Sa(F98Y) strain [2])?
**A.** Its value is 2.5 µg/mL (≈ 6.69 µM).

**Q.** And the “MIC Sa(H149R)” value (Sa(H149R) strain [3])?
**A.** The value was 2.5 µg/mL (≈ 6.69 µM).

**Q.** And the “MIC Sa(F98Y, H149R)” value (Sa(F98Y, H149R) strain [4])?
**A.** Its value is 40 µg/mL (≈ 107 µM).

**Q.** What does the source list for `CCc1nc(N)nc(N)c1C#CCc1cc(OC)c(OC)c(-c2ccncc2)c1` [Compound 60]?
**A.** MIC Sa(H30N, F98Y) (Sa(H30N, F98Y) strain [1]): 20 µg/mL (≈ 51.4 µM); MIC Sa(F98Y) (Sa(F98Y) strain [2]): 0.625 µg/mL (≈ 1.6 µM); MIC Sa(H149R) (Sa(H149R) strain [3]): 0.625 µg/mL (≈ 1.6 µM); MIC Sa(F98Y, H149R) (Sa(F98Y, H149R) strain [4]): 40 µg/mL (≈ 103 µM)

**Q.** What does the source list for `CCc1nc(N)nc(N)c1C#CC(C)c1cc2c(c(-c3ccncc3)c1)OCO2` (stereo not drawn) [Compound B, reference compound]?
**A.** MIC Sa(H30N, F98Y) (Sa(H30N, F98Y) strain [1]): 40 µg/mL (≈ 103 µM); MIC Sa(F98Y) (Sa(F98Y) strain [2]): 1.25 µg/mL (≈ 3.23 µM); MIC Sa(H149R) (Sa(H149R) strain [3]): 5 µg/mL (≈ 12.9 µM); MIC Sa(F98Y, H149R) (Sa(F98Y, H149R) strain [4]): 40 µg/mL (≈ 103 µM)

**Q.** With `CCc1nc(N)nc(N)c1C#C[C@@H](C)c1cc(OC)cc(-c2ccc(C(=O)O)cc2)c1` [Compound 32] as the compound, how does the “MIC Sa(H30N, F98Y)” value (Sa(H30N, F98Y) strain [1]) read?
**A.** Its value is 1.25 µg/mL (≈ 3 µM).

**Q.** What about the “MIC Sa(F98Y)” value (Sa(F98Y) strain [2]) of the same compound?
**A.** Its value is 0.0781 µg/mL (≈ 0.188 µM).

**Q.** And the “MIC Sa(H149R)” value (Sa(H149R) strain [3])?
**A.** The value was 0.0781 µg/mL (≈ 0.188 µM).

**Q.** What about the “MIC Sa(F98Y, H149R)” value (Sa(F98Y, H149R) strain [4]) of the same compound?
**A.** The value was 1.25 µg/mL (≈ 3 µM).

**Q.** What does the source list for `CCc1nc(N)nc(N)c1C#C[C@@H](C)c1cc(-c2ccncc2)ccc1OC` [E, reference compound]?
**A.** MIC Sa(H30N, F98Y) (Sa(H30N, F98Y) strain [1]): 10 µg/mL (≈ 26.8 µM); MIC Sa(F98Y) (Sa(F98Y) strain [2]): 1.25 µg/mL (≈ 3.35 µM); MIC Sa(H149R) (Sa(H149R) strain [3]): 1.25 µg/mL (≈ 3.35 µM); MIC Sa(F98Y, H149R) (Sa(F98Y, H149R) strain [4]): 20 µg/mL (≈ 53.6 µM)

**Q.** How did the “Mutational Frequency of DHFR mutation F98Y/H30N” value (Sa43300(F98Y)) turn out when `CCc1nc(N)nc(N)c1C#CC(C)c1cc(OC)cc(-c2ccncc2)c1` (stereo not drawn) [Compound A] was run?
**A.** Its value is 8.2 × 10^−12.

**Q.** What about the MIC (Sa(F98Y, H149R) strain [5]) of the same compound?
**A.** The MIC was 80 µg/mL (≈ 214 µM).

**Q.** What about the MIC (Sa(F98Y) strain [6]) of the same compound?
**A.** The MIC was 2.5 µg/mL (≈ 6.69 µM).

**Q.** What about the MIC (Sa(H30N, F98Y) strain [7]) of the same compound?
**A.** Its MIC is 20 µg/mL (≈ 53.6 µM).

**Q.** What about the “Mutational Frequency of DHFR mutation F98Y/H149R” value (Sa43300(H149R)) of the same compound?
**A.** The value was 1.23 × 10^−11.

**Q.** What about the MIC (Sa(H149R) strain [8]) of the same compound?
**A.** The MIC was 2.5 µg/mL (≈ 6.69 µM).

**Q.** Which results are given for `CCc1nc(N)nc(N)c1C#CCc1cc(OC)cc(-c2ccc(C(=O)O)cc2)c1` [Compound 16]?
**A.** MIC Sa(H30N, F98Y) (Sa(H30N, F98Y) strain [1]): 5 µg/mL (≈ 12.4 µM); MIC Sa(F98Y) (Sa(F98Y) strain [2]): 0.1563 µg/mL (≈ 0.388 µM); MIC Sa(H149R) (Sa(H149R) strain [3]): 0.1563 µg/mL (≈ 0.388 µM); MIC Sa(F98Y, H149R) (Sa(F98Y, H149R) strain [4]): 10 µg/mL (≈ 24.8 µM)

**Q.** How did the “MIC Sa(H30N, F98Y)” value (Sa(H30N, F98Y) strain [1]) turn out when `CCc1nc(N)nc(N)c1C#CCc1cc(-c2ccc(C(=O)O)cc2)ccc1OC` [Compound 15] was run?
**A.** Its value is 6.25 µg/mL (≈ 15.5 µM).

**Q.** What about the “MIC Sa(F98Y)” value (Sa(F98Y) strain [2]) of the same compound?
**A.** The value was 0.1563 µg/mL (≈ 0.388 µM).

**Q.** And the “MIC Sa(H149R)” value (Sa(H149R) strain [3])?
**A.** Its value is 0.1564 µg/mL (≈ 0.389 µM).

**Q.** What about the “MIC Sa(F98Y, H149R)” value (Sa(F98Y, H149R) strain [4]) of the same compound?
**A.** Its value is >50 µg/mL.

**Q.** What does the source list for `CCc1nc(N)nc(N)c1C#CC(C)c1cc2c(c(-c3ccncc3)c1)OCO2` (stereo not drawn) [F, reference compound]?
**A.** MIC Sa(H30N, F98Y) (Sa(H30N, F98Y) strain [1]): 20 µg/mL (≈ 51.6 µM); MIC Sa(F98Y) (Sa(F98Y) strain [2]): 1.25 µg/mL (≈ 3.23 µM); MIC Sa(H149R) (Sa(H149R) strain [3]): 2.5 µg/mL (≈ 6.45 µM); MIC Sa(F98Y, H149R) (Sa(F98Y, H149R) strain [4]): 20 µg/mL (≈ 51.6 µM)

**Q.** Which “MIC Sa(H30N, F98Y)” value (Sa(H30N, F98Y) strain [1]) does the source give for `CCc1nc(N)nc(N)c1C#CC(C)c1cc(OC)cc(-c2ccncc2)c1` (stereo not drawn) [Compound D, reference compound] here?
**A.** Its value is 40 µg/mL (≈ 107 µM).

**Q.** What about the “MIC Sa(F98Y)” value (Sa(F98Y) strain [2]) of the same compound?
**A.** Its value is 0.625 µg/mL (≈ 1.67 µM).

**Q.** And the “MIC Sa(H149R)” value (Sa(H149R) strain [3])?
**A.** The value was 0.625 µg/mL (≈ 1.67 µM).

**Q.** And the “MIC Sa(F98Y, H149R)” value (Sa(F98Y, H149R) strain [4])?
**A.** The value was 20 µg/mL (≈ 53.6 µM).

**Q.** How did the MIC (Sa(F98Y, H149R) strain [5]) turn out when `COc1cc(Cc2cnc(N)nc2N)cc(OC)c1OC` [TMP, trimethoprim] was run?
**A.** Its MIC is 100 µg/mL (≈ 344 µM).

**Q.** And the MIC (Sa(F98Y) strain [6])?
**A.** Its MIC is 10 µg/mL (≈ 34.4 µM).

**Q.** And the MIC (Sa(H30N, F98Y) strain [7])?
**A.** Its MIC is 50 µg/mL (≈ 172 µM).

**Q.** And the MIC (Sa(H149R) strain [8])?
**A.** The MIC was 2.5 µg/mL (≈ 8.61 µM).

**Q.** For `CCc1nc(N)nc(N)c1C#C[C@H](C)c1cc(OC)cc(-c2ccc(C(=O)O)cc2)c1` [Compound 31], which “MIC Sa(H30N, F98Y)” value (Sa(H30N, F98Y) strain [1]) is on record?
**A.** Its value is 1.25 µg/mL (≈ 3 µM).

**Q.** And the “MIC Sa(F98Y)” value (Sa(F98Y) strain [2])?
**A.** Its value is 0.0781 µg/mL (≈ 0.188 µM).

**Q.** And the “MIC Sa(H149R)” value (Sa(H149R) strain [3])?
**A.** The value was 0.0391 µg/mL (≈ 0.0939 µM).

**Q.** And the “MIC Sa(F98Y, H149R)” value (Sa(F98Y, H149R) strain [4])?
**A.** Its value is 2.5 µg/mL (≈ 6 µM).

Converted amounts (≈) assume the structure as drawn.
